Measured values from patent US6159704, “Phosphatase modulator” (Novartis AG, dated 2000).

Molecular target: full length human eRF1 fused to the GAL4 transactivation domain (yeast; human, UniProt P62495)
Test: yeast two-hybrid: His growth (HF7c) and colony colour in filter β-Gal assay (SFY526)
From the text: PCR products encoding three N-terminal (PP2Ac^50-309, PP2Ac^100-309 and PP2Ac^150-309) and three C-terminal (PP2Ac^1-259, PP2Ac^1-209 and PP2Ac^1-159) truncations of PP2Acα are subcloned into pGBT9 in-frame with the GAL4 DNA binding domain. Control plasmids encoding wild-type GAL4 protein (pCL1), SV40 large T antigen (pTD1), p53 (pVA3) and lamin C (pLAM5'), the latter three fused to the appropriate domains of GAL4, are provided by the manufacturer and used for control interactions. Expression constructs are transformed into *S. cerevisiae* host strains SFY526 (lacZ reporter gene) and HF7c (lacZ and HIS3 reporter genes). […] The expression of the lacZreporter gene is determined by measuring β-galactosidase activity using 5-bromo-4-chloro-3-indolyl-β-D-galactoside [X-Gal] and O-nitrophenyl-β-D-galactoside [ONPG] as substrates, whereas the expression of HIS3 reporter gene is assessed by monitoring growth on triple selective SD medium lacking leucine, tryptophan and histidine. All media and reagents are prepared according to the manufacturer's recommendations. Transcriptional activation of reporter genes driven by wild-type GAL4 protein or brought about by the interaction between SV40 largeT and p53 are used as positive controls. […]

B1: PP2Ac^[…] fused to the GAL4 DNA binding domain (enzyme)
chain: not shown
binding result: no binding
